Results from the supplement of paper PMC10126150.
Values marked as one replicate rest on one cluster of the flow cell; about a third of the high ones do not repeat.

What follows are sequences tested on ATP (assay: switch fluorescence ratio, 500 uM ATP over buffer (Cy3 cluster intensity, sum of 5 cycles each) (fold (ratio)); higher = stronger signal-on switching upon ATP binding; sequences stand for … in TCGTCGGCAGCGTCAGATGTGTATAAGAGACAGTTTTTTTTTTTTTTTTTTTTTTTTT…TC). Conditions: aptamer strand: ATP DNA aptamer (quencher-CACCTGGGGGAGTATTGCGGAGGAAGG + anchor), 100 nM annealed; ATP concentration: 500 uM; one replicate.
Method in brief: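 Per cluster, summed Cy3 intensity from the target cycles was divided by that from the buffer cycles to give the fluorescence ratio, then averaged per switch-domain sequence. Clusters outside 100-1000 RFU were excluded. The Cy3-labelled switching-strand clusters, on a modified Illumina MiSeq flow-cell, were annealed to 100 nM quencher-labelled ATP aptamer and imaged in selection buffer, then after 15 min with 500 uM ATP at 22 °C, for five cycles with NaOH stripping and re-annealing between them.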
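Also: ATP exposure 15 min at 22 °C before imaging.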

Sequence | switch fluorescence ratio
GGCCGACAAT | 1.22
TAATGTTAAC | 0.977
AAGTTGTCAG | 1.03
ACTGCATGTT | 1.05
CAAATATAGG | 1
ATGAGCCGC | 0.979
GATACATAGT | 0.996
AAAATAGTAT | 1.03
AGCCCGTTAT | 1.01
TTGTGACGTC | 1.03
CTCAAATAAA | 0.923
TTTCAAATTT | 0.957
TCGTGAGTAA | 1.08
ATATAGGAAA | 1.04
CGCCCTTTCA | 1.04
TCCAGGCTCG | 1.02
AGATGGCGAG | 0.98
TCCGATTGTA | 1.07
TTAGAGCAA | 1.02
ATGGGTCTGA | 0.934
GTCCACTTTC | 1.05
GAATTTTTAA | 0.953
GTAACGCATT | 0.994
TACAGAAGAT | 1.03
ACCTGTTATA | 1.08
TGCATAAACT | 1.01

Sequence | switch fluorescence ratio
GGTCCACTCA | 0.984
GTTACGGGTC | 0.991
AAGAGTGAGT | 1
TTTAGACATC | 1.01
TACATATCCC | 1.01
GCCTCATCTG | 0.946
CTTACAGTTG | 0.998
GACATCCTGC | 0.976
TCATGCAGG | 0.975
TTACAACTTA | 1.01
CTCCCAGTCT | 1.47
TGGGTTGGGC | 0.975
GATCTAGGGA | 0.988
AGTAGAAAGC | 1
AGTCCATCTA | 0.987
TTGGGTTGCC | 0.977
GTCTAAATGC | 1.19
GTAGGGAAAT | 0.95
TTCTCAGGCG | 1.02
AGAACCTGAG | 2.05
CTATGCTTGT | 0.977
CGCACACAGT | 1.03
TATTCCGGGG | 1.11
GCTCGTCAAT | 1.11
GCATGAAGCT | 1.02
GGTATAGGAG | 1.01

Sequence | switch fluorescence ratio
TACGTAGGTC | 1.03
CGTAGTTCG | 1.03
TAAGCTCATT | 1.01
ACAGGGGCGT | 1.05
TCCCCGTCAT | 1.95
CTACTAAGAG | 0.993
CTTGTTGTGG | 0.96
ACAGATATAC | 1.27
AAAATTGAGG | 1
AGAGGGCCAG | 0.988
CTCTTTGTAA | 1.06
AGCTCGAAGC | 1.04
CAGGGTAAAA | 0.963
AAAGCGATGT | 0.984
ACTCCCCTGC | 3.31
AACCTTAGGT | 1.02
AAAGCAAGCC | 2.22
TAATAGGGAG | 0.999
GCGGTCTAGT | 0.973
ACCTACGCCT | 1.25
ACACGGGCTG | 1.02
TTGTTGCCCA | 1.04
TGCGTCTTGG | 1.01
CGCGCGATAT | 1.12
ATGTAAGATG | 1.03
AGTTTGTTTC | 1.04

Sequence | switch fluorescence ratio
GCGCACGTGC | 1.04
AGGTTCTAGA | 1
TGTATGGGTC | 1.01
GAGGGACTTT | 1.01
AGATGAGACA | 0.978
GCGTCGCCTG | 1.01
TATTATGATT | 0.995
AAGACAATT | 1.04
CGCGGGAGGC | 0.949
CGCCTTCTTG | 1.01
AGAGGATTAT | 1
CGCATCTT | 1.11
GGCATAGTTG | 1.02
ACGGGGACCA | 1.06
ATGTGCGGTG | 1
CTGGGGCA | 1.02
GAGGTTTAAC | 0.995
AATGTTGAGG | 0.984
TTTCCTAGTC | 1.06
CTGCTACATA | 1.06
ATCAAGAGTA | 0.993
GGTTTAGCTT | 1
GTGCATAGGG | 1.02
TTAGTCTCCG | 1.02
TTGTGGAGAC | 1.04
TATTTAATCG | 0.993

Sequence | switch fluorescence ratio
CGAATCCAGC | 0.978
GGCTCGCCTC | 1.03
TGACAGTACT | 1.34
AAAAACCCGA | 1.04
GGTCCGCCTC | 1.18
GTAACTTATG | 0.973
CAAATAGGGA | 0.991
AATGTCAGAC | 0.925
CAGAGAATA | 1.02
ATGACCAGTG | 0.98
AAGGGGGACG | 0.986
TCGCCGTTCC | 1.03
AGAGGTAGGT | 1
CCAATGCACG | 1.1
GTTAAGATTA | 1.03
GGGACACTGT | 1.02
TGGTGGCACT | 0.998
ACCGTTGGGA | 1
GAACAGAATC | 0.992
CAAATATTAT | 1.01
GCCCATGCCT | 1
ATCACCGCGG | 1.01
TGCCAGTTAC | 1.09
GAAGTCTCTT | 0.977
GGATCGCTGG | 1.03
TGAAGCAGAT | 1.13

Sequence | switch fluorescence ratio
TTAGTACGCA | 1.2
CTTTGTCCGC | 2.73
TGACAAAGAG | 1.04
ACAGGAGTTG | 0.996
GCGTGCTTGT | 0.991
TTAGCTGGTA | 1.03
CCTAAACCCT | 1.06
GATAATGTTA | 1.02
GTAAGGAGTG | 0.989
CTGGACATGC | 1.1
CTCCGGGGAT | 4.11
TGGCCGAGCG | 1.03
CTAGTGATGC | 1.49
TATCATACG | 1.04
GTGTAATGAT | 1.01
AACCGAATTG | 0.999
CTCGAAACGC | 1.13
CCGATAAGGG | 1.07
AGACAAGTTT | 0.994
TCAAGGGGTA | 0.994
GATCTTGTGA | 0.977
AACCTGTGGC | 0.981
ACCAATACGG | 1.2
